From the supplement of paper PMC9151546
Repeats are few or missing, and single values can be far off.

Columns and labels:
CHO-K1 [1] = assay: relative survival (nuclei to bead ratio vs DMSO control) (% of vehicle control); higher = more surviving cells
Protocol: (§1)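 Flow-cytometric in vitro micronucleus assay (Litron MicroFlow) in CHO-K1 cells in 96-well plates, 19 concentrations (4.5-200 µM, n=1 per concentration). Without S9, cells were exposed for 24 h and sampled at 48 h. With Aroclor 1254-induced rat liver S9, cells were exposed for 3-4 h and sampled at 27-28 h. Read-outs are %MN and %hypodiploid nuclei relative to nucleated events, and relative survival as the nuclei-to-bead ratio versus the 1% DMSO vehicle control (x100).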

CHO-K1 [2] = assay: micronucleus frequency (% of nucleated events); higher = more micronuclei (genotoxic)
CHO-K1 [3] = assay: hypodiploid nuclei frequency (% of nucleated events); higher = more hypodiploid events (aneugenic)
Protocol: as §1
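For hypodiploid nuclei frequency (% of nucleated events) in this document: hypodiploid nuclei gated on a flow cytometer with 488 nm excitation after SYTOX Green staining, cultures at 37 °C, positive controls vinblastine without S9 and cyclophosphamide with S9.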
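For micronucleus frequency (% of nucleated events) in this document: cells lysed with nuclei stained by SYTOX Green, then micronucleus-gated events counted against nucleated events by flow cytometry with 488 nm excitation.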
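For relative survival (nuclei to bead ratio vs DMSO control) in this document: Lysed-cell nuclei stained with SYTOX Green and counted against counting beads by flow cytometry at 488 nm excitation, with vinblastine (no S9) and cyclophosphamide (plus S9) as positive controls.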

CCN(CC)c1ccccc1 [N,N-Diethylaniline]
Settings	hypodiploid nuclei frequency, CHO-K1 [3] [%]	micronucleus frequency, CHO-K1 [2] [%]	relative survival, CHO-K1 [1]
concentration: 4.44 (µM), S9 metabolic activation: with S9, exposure time: 3-4 hours	0.34	0.92	97.1
concentration: 4.44 (µM), S9 metabolic activation: without S9, exposure time: 24 hours	0.54	1.2	95.8
concentration: 5.55 (µM), S9 metabolic activation: with S9, exposure time: 3-4 hours	0.24	0.82	106
concentration: 5.55 (µM), S9 metabolic activation: without S9, exposure time: 24 hours	0.62	1.42	86.8
concentration: 6.93 (µM), S9 metabolic activation: with S9, exposure time: 3-4 hours	0.26	0.84	103
concentration: 6.93 (µM), S9 metabolic activation: without S9, exposure time: 24 hours	0.58	1.24	96.2
concentration: 8.66 (µM), S9 metabolic activation: with S9, exposure time: 3-4 hours	0.14	1	100
concentration: 8.66 (µM), S9 metabolic activation: without S9, exposure time: 24 hours	0.32	1.26	99.4
concentration: 10.8 (µM), S9 metabolic activation: with S9, exposure time: 3-4 hours	0.26	1.04	111
concentration: 10.8 (µM), S9 metabolic activation: without S9, exposure time: 24 hours	0.48	1.24	102
concentration: 13.5 (µM), S9 metabolic activation: with S9, exposure time: 3-4 hours	0.24	0.94	92.2
concentration: 13.5 (µM), S9 metabolic activation: without S9, exposure time: 24 hours	0.44	1.34	100
concentration: 16.9 (µM), S9 metabolic activation: with S9, exposure time: 3-4 hours	0.2	1.1	96
concentration: 16.9 (µM), S9 metabolic activation: without S9, exposure time: 24 hours	0.44	1.48	93.6
concentration: 21.2 (µM), S9 metabolic activation: with S9, exposure time: 3-4 hours	0.3	1.18	100
concentration: 21.2 (µM), S9 metabolic activation: without S9, exposure time: 24 hours	0.46	1.22	95.5
concentration: 26.4 (µM), S9 metabolic activation: with S9, exposure time: 3-4 hours	0.24	0.92	142
concentration: 26.4 (µM), S9 metabolic activation: without S9, exposure time: 24 hours	0.86	0.84	78.3
concentration: 33.1 (µM), S9 metabolic activation: with S9, exposure time: 3-4 hours	0.18	1.12	129
concentration: 33.1 (µM), S9 metabolic activation: without S9, exposure time: 24 hours	0.76	1.18	93.6
concentration: 41.3 (µM), S9 metabolic activation: with S9, exposure time: 3-4 hours	0.18	1.08	92.4
concentration: 41.3 (µM), S9 metabolic activation: without S9, exposure time: 24 hours	0.96	1.16	99
concentration: 51.6 (µM), S9 metabolic activation: with S9, exposure time: 3-4 hours	0.2	1.2	92.4
concentration: 51.6 (µM), S9 metabolic activation: without S9, exposure time: 24 hours	0.58	1.48	111
concentration: 64.6 (µM), S9 metabolic activation: with S9, exposure time: 3-4 hours	0.36	0.94	98.2
concentration: 64.6 (µM), S9 metabolic activation: without S9, exposure time: 24 hours	0.58	1.54	111
concentration: 80.7 (µM), S9 metabolic activation: with S9, exposure time: 3-4 hours	0.32	1.12	97.1
concentration: 80.7 (µM), S9 metabolic activation: without S9, exposure time: 24 hours	0.96	1.52	101
concentration: 101 (µM), S9 metabolic activation: with S9, exposure time: 3-4 hours	0.14	1.3	120
concentration: 101 (µM), S9 metabolic activation: without S9, exposure time: 24 hours	0.76	1.3	89.1
concentration: 126 (µM), S9 metabolic activation: with S9, exposure time: 3-4 hours	0.18	1.02	96.2
concentration: 126 (µM), S9 metabolic activation: without S9, exposure time: 24 hours	0.86	1.38	96.2
concentration: 158 (µM), S9 metabolic activation: with S9, exposure time: 3-4 hours	0.3	1.06	89.1
concentration: 158 (µM), S9 metabolic activation: without S9, exposure time: 24 hours	1.28	2.02	91.1
concentration: 197 (µM), S9 metabolic activation: with S9, exposure time: 3-4 hours	0.12	1.34	97.1
concentration: 197 (µM), S9 metabolic activation: without S9, exposure time: 24 hours	1.52	2.56	76.5
